# Measurements reported in the supplement of paper PMC8728848.
# This is one part of the list.
# B1: WGA (Triticum vulgare) (protein)
# chain: QRCGEQGSNMECPNNLCCSQYGYCGMGGDYCGKGCQNGACWTSKRCGSQAGGATCPNNHCCSQYGHCGFGAEYCGAGCQGGPCRADIKCGSQSGGKLCPNNLCCSQWGFCGLGSEFCGGGCQSGACSTDKPCGKDAGGRVCTNNYCCSKWGSCGIGPGYCGAGCQSGGCDAVFAGAITANSTLLAE
# Legend:
# Experiment in all cases: glycan array binding signal (z-score within array); higher = stronger binding
# Settings in all cases: glycan notation: IUPAC condensed, linker removed
# [1] = target: Fuc(a1-2)Gal(b1-4)GlcNAc(b1-3)Gal(b1-4)GlcNAc(b1-2)Man(a1-3)[Fuc(a1-2)Gal(b1-4)GlcNAc(b1-3)Gal(b1-4)GlcNAc(b1-2)Man(a1-6)]Man(b1-4)GlcNAc(b1-4)GlcNAc
# Method in brief: (§1)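 Columns mapping to the same glycan were averaged after glycan names were converted to IUPAC-condensed notation. The data come from 3228 arrays in the Consortium for Functional Glycomics database, limited to those with an available protein sequence. Binding is reported as a within-array Z-score averaged across arrays of one protein sequence and across linkers.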
# [2] = target: Fuc(a1-2)Gal(b1-4)GlcNAc(b1-3)Gal(b1-4)GlcNAc(b1-3)Gal(b1-4)GlcNAc
# Method in brief: as §1
# [3] = target: Fuc(a1-2)Gal(b1-4)GlcNAc(b1-3)GalNAc
# Method in brief: as §1
# [4] = target: Fuc(a1-2)Gal(b1-4)GlcNAc(b1-3)[Fuc(a1-2)Gal(b1-4)GlcNAc(b1-6)]GalNAc
# Method in brief: as §1
# [5] = target: Fuc(a1-2)Gal(b1-4)GlcNAc(b1-3)[Fuc(a1-3)[Gal(b1-4)]GlcNAc(b1-6)]Gal(b1-4)Glc
# Method in brief: as §1
# [6] = target: Fuc(a1-2)Gal(b1-4)GlcNAc(b1-6)GalNAc
# Method in brief: as §1
# [7] = target: Fuc(a1-2)Gal(b1-4)GlcNAc6S
# Method in brief: as §1
# [8] = target: Fuc(a1-2)Gal(b1-4)[Fuc(a1-3)]GlcNAc
# Method in brief: as §1
# [9] = target: Fuc(a1-2)Gal(b1-4)[Fuc(a1-3)]GlcNAc(b1-2)Man(a1-3)[Fuc(a1-2)Gal(b1-4)[Fuc(a1-3)]GlcNAc(b1-2)Man(a1-6)]Man(b1-4)GlcNAc(b1-4)[Fuc(a1-6)]GlcNAc
# Method in brief: as §1
# [10] = target: Fuc(a1-2)Gal(b1-4)[Fuc(a1-3)]GlcNAc(b1-2)[Fuc(a1-2)Gal(b1-4)[Fuc(a1-3)]GlcNAc(b1-4)]Man(a1-3)[Fuc(a1-2)Gal(b1-4)[Fuc(a1-3)]GlcNAc(b1-2)Man(a1-6)]Man(b1-4)GlcNAc(b1-4)GlcNAc
# Method in brief: as §1
# [11] = target: Fuc(a1-2)Gal(b1-4)[Fuc(a1-3)]GlcNAc(b1-3)Gal(b1-4)[Fuc(a1-3)]GlcNAc
# Method in brief: as §1
# [12] = target: Fuc(a1-2)Gal(b1-4)[Fuc(a1-3)]GlcNAc(b1-3)Gal(b1-4)[Fuc(a1-3)]GlcNAc(b1-3)Gal(b1-4)[Fuc(a1-3)]GlcNAc
# Method in brief: as §1
# [13] = target: Fuc(a1-2)Gal(b1-4)[Fuc(a1-3)]GlcNAc(b1-3)GalNAc
# Method in brief: as §1
# [14] = target: Fuc(a1-2)Gal(b1-4)[Fuc(a1-3)]GlcNAc(b1-3)[Neu5Ac(a2-6)Gal(b1-4)GlcNAc(b1-6)]Gal(b1-4)Glc
# Method in brief: as §1
# [15] = target: Fuc(a1-2)Gal3S(b1-4)GlcNAc
# Method in brief: as §1
# [16] = target: Fuc(a1-2)Gal6S(b1-3)GlcNAc
# Method in brief: as §1
# [17] = target: Fuc(a1-2)Gal6S(b1-3)GlcNAc6S
# Method in brief: as §1
# Fuc(a1-2)Gal6S(b1-4)Glc = target: Fuc(a1-2)Gal6S(b1-4)Glc
# Method in brief: as §1
# [18] = target: Fuc(a1-2)Gal6S(b1-4)Glc6S
# Method in brief: as §1
# Fuc(a1-2)GlcNAc = target: Fuc(a1-2)GlcNAc
# Method in brief: as §1
# Fuc(a1-2)[Gal(a1-3)]Gal = target: Fuc(a1-2)[Gal(a1-3)]Gal
# Method in brief: as §1
# [19] = target: Fuc(a1-2)[Gal(a1-3)]Gal(b1-3)GalNAc
# Method in brief: as §1
# [20] = target: Fuc(a1-2)[Gal(a1-3)]Gal(b1-3)GalNAc(b1-3)Gal(a1-4)Gal(b1-4)Glc
# Method in brief: as §1
# [21] = target: Fuc(a1-2)[Gal(a1-3)]Gal(b1-3)GlcNAc
# Method in brief: as §1
# [22] = target: Fuc(a1-2)[Gal(a1-3)]Gal(b1-3)GlcNAc(b1-2)Man(a1-3)[Fuc(a1-2)[Gal(a1-3)]Gal(b1-3)GlcNAc(b1-2)Man(a1-6)]Man(b1-4)GlcNAc(b1-4)GlcNAc
# Method in brief: as §1
# [23] = target: Fuc(a1-2)[Gal(a1-3)]Gal(b1-3)GlcNAc(b1-2)Man(a1-3)[Fuc(a1-2)[Gal(a1-3)]Gal(b1-3)GlcNAc(b1-2)Man(a1-6)]Man(b1-4)GlcNAc(b1-4)[Fuc(a1-6)]GlcNAc
# Method in brief: as §1
# [24] = target: Fuc(a1-2)[Gal(a1-3)]Gal(b1-3)GlcNAc(b1-3)GalNAc
# Method in brief: as §1
# [25] = target: Fuc(a1-2)[Gal(a1-3)]Gal(b1-3)GlcNAc(b1-6)GalNAc
# Method in brief: as §1
# [26] = target: Fuc(a1-2)[Gal(a1-3)]Gal(b1-4)Glc
# Method in brief: as §1
# [27] = target: Fuc(a1-2)[Gal(a1-3)]Gal(b1-4)GlcNAc
# Method in brief: as §1
# [28] = target: Fuc(a1-2)[Gal(a1-3)]Gal(b1-4)GlcNAc(b1-2)Man
# Method in brief: as §1
# [29] = target: Fuc(a1-2)[Gal(a1-3)]Gal(b1-4)GlcNAc(b1-2)Man(a1-3)[Fuc(a1-2)[Gal(a1-3)]Gal(b1-4)GlcNAc(b1-2)Man(a1-6)]Man(b1-4)GlcNAc(b1-4)GlcNAc
# Method in brief: as §1
# [30] = target: Fuc(a1-2)[Gal(a1-3)]Gal(b1-4)GlcNAc(b1-2)Man(a1-3)[Fuc(a1-2)[Gal(a1-3)]Gal(b1-4)GlcNAc(b1-2)Man(a1-6)]Man(b1-4)GlcNAc(b1-4)[Fuc(a1-6)]GlcNAc
# Method in brief: as §1
# [31] = target: Fuc(a1-2)[Gal(a1-3)]Gal(b1-4)GlcNAc(b1-3)GalNAc
# Method in brief: as §1
# [32] = target: Fuc(a1-2)[Gal(a1-3)]Gal(b1-4)GlcNAc(b1-3)[Fuc(a1-2)[Gal(a1-3)]Gal(b1-4)GlcNAc(b1-6)]GalNAc
# Method in brief: as §1
# [33] = target: Fuc(a1-2)[Gal(a1-3)]Gal(b1-4)GlcNAc(b1-6)GalNAc
# Method in brief: as §1
# [34] = target: Fuc(a1-2)[Gal(a1-3)]Gal(b1-4)[Fuc(a1-3)]Glc
# Method in brief: as §1
# [35] = target: Fuc(a1-2)[Gal(a1-3)]Gal(b1-4)[Fuc(a1-3)]GlcNAc
# Method in brief: as §1
# [36] = target: Fuc(a1-2)[Gal(a1-3)]Gal(b1-4)[Fuc(a1-3)]GlcNAc(b1-3)GalNAc
# Method in brief: as §1
# [37] = target: Fuc(a1-2)[Gal(a1-4)]Gal(b1-4)GlcNAc
# Method in brief: as §1
# [38] = target: Fuc(a1-2)[GalNAc(a1-3)]Gal
# Method in brief: as §1
# [39] = target: Fuc(a1-2)[GalNAc(a1-3)]Gal(b1-3)GalNAc(a1-3)[Fuc(a1-2)]Gal(b1-4)GlcNAc
# Method in brief: as §1
# [40] = target: Fuc(a1-2)[GalNAc(a1-3)]Gal(b1-3)GalNAc(b1-3)Gal(a1-4)Gal(b1-4)Glc
# Method in brief: as §1
# [41] = target: Fuc(a1-2)[GalNAc(a1-3)]Gal(b1-3)GlcNAc
# Method in brief: as §1
# [42] = target: Fuc(a1-2)[GalNAc(a1-3)]Gal(b1-3)GlcNAc(b1-2)Man(a1-3)[Fuc(a1-2)[GalNAc(a1-3)]Gal(b1-3)GlcNAc(b1-2)Man(a1-6)]Man(b1-4)GlcNAc(b1-4)GlcNAc
# Method in brief: as §1
binder,measurement,setting,value
B1,glycan array binding signal (z-score),[1],-0.019
same,glycan array binding signal (z-score),[2],0.077
same,glycan array binding signal (z-score),[3],-0.334
same,glycan array binding signal (z-score),[4],-0.342
same,glycan array binding signal (z-score),[5],-0.339
same,glycan array binding signal (z-score),[6],-0.277
same,glycan array binding signal (z-score),[7],-0.215
same,glycan array binding signal (z-score),[8],-0.359
same,glycan array binding signal (z-score),[9],-0.297
same,glycan array binding signal (z-score),[10],-0.238
same,glycan array binding signal (z-score),[11],-0.365
same,glycan array binding signal (z-score),[12],-0.336
same,glycan array binding signal (z-score),[13],-0.239
same,glycan array binding signal (z-score),[14],-0.371
same,glycan array binding signal (z-score),[15],-0.346
same,glycan array binding signal (z-score),[16],-0.341
same,glycan array binding signal (z-score),[17],-0.355
same,glycan array binding signal (z-score),Fuc(a1-2)Gal6S(b1-4)Glc,-0.35
same,glycan array binding signal (z-score),[18],-0.336
same,glycan array binding signal (z-score),Fuc(a1-2)GlcNAc,-0.719
same,glycan array binding signal (z-score),Fuc(a1-2)[Gal(a1-3)]Gal,-0.356
same,glycan array binding signal (z-score),[19],-0.353
same,glycan array binding signal (z-score),[20],-0.364
same,glycan array binding signal (z-score),[21],-0.284
same,glycan array binding signal (z-score),[22],-0.323
same,glycan array binding signal (z-score),[23],-0.294
same,glycan array binding signal (z-score),[24],-0.331
same,glycan array binding signal (z-score),[25],-0.324
same,glycan array binding signal (z-score),[26],-0.359
same,glycan array binding signal (z-score),[27],0.426
same,glycan array binding signal (z-score),[28],-0.357
same,glycan array binding signal (z-score),[29],-0.161
same,glycan array binding signal (z-score),[30],-0.292
same,glycan array binding signal (z-score),[31],-0.339
same,glycan array binding signal (z-score),[32],-0.314
same,glycan array binding signal (z-score),[33],-0.326
same,glycan array binding signal (z-score),[34],-0.309
same,glycan array binding signal (z-score),[35],-0.304
same,glycan array binding signal (z-score),[36],-0.277
same,glycan array binding signal (z-score),[37],0.509
same,glycan array binding signal (z-score),[38],-0.082
same,glycan array binding signal (z-score),[39],0.738
same,glycan array binding signal (z-score),[40],-0.368
same,glycan array binding signal (z-score),[41],-0.387
same,glycan array binding signal (z-score),[42],-0.181
